# Assay results published in PubChem BioAssay AID904 (National Center for Advancing Translational Sciences (NCATS), 2007).
# The whole screen tested about 55,000 compounds, of which about 530 (0.96%) were called active. Inconclusive means that the source gave no clear call. Such entries were picked first, then a sample of the others. Calls follow the shape of the dose curve; as a rule, active = well fitted cell-killing curve with a large enough effect; inconclusive = small, poorly fitted or top-dose-only effect; inactive = no such curve, though single readings can be large or run the other way. A potency beside an inconclusive call is a rough fit, not a confirmed value.
# Assay: qHTS Screen for Compounds that Selectively Target Cancer Cells with p53 Mutations: Cytotoxicity of p53 Null Cells at the Nonpermissive Temperature; also: nearly all actives have a fitted effect of over 50% in size;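 as to activity, negative = cell killing: 0% = DMSO only and -100% = full killing by 100 µM tamoxifen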
# Conditions: H1299 p53-null (neo) cells, 39C, ATPlite viability, 24 h; activity, negative = cell killing: at 46.1 µM (top of the series)
# Outline: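 Concentration-response (up to 46 uM) was run for 24 h at the nonpermissive 39C on H1299-p53A138V or H1299-neo cells. ATP content was measured with ATPlite luminescence. AC50 values were Hill-modeled after normalizing between DMSO and 100 uM tamoxifen killing.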
# Potency is read from the fitted curve at half-maximal effect; tags tell the direction and shape of the fitted curve.
Structure (SMILES),Potency,"activity, negative = cell killing"
Cc1ccc(C(=O)Nc2nnc(S(=O)(=O)N(C)Cc3ccco3)s2)cc1,"inconclusive: 35.5 µM [cytotoxic, partial curve, poor fit]",
Cc1cccc(C)c1NC(=O)Cn1cc(C(=O)c2ccco2)c2ccccc21,"inconclusive: 35.5 µM [cytotoxic, single point]",
Cc1cc(C)c(OCC(=O)N(Cc2ccc(N(C)C)cc2)CC2CCCO2)c(C)c1 (stereo not drawn),"inconclusive: 22.4 µM [cytotoxic, single point]",
Cc1ccc(C)c(N(C)C(=O)c2cc3c(s2)-c2ccccc2OC3)c1,"inconclusive: 31.6 µM [cytotoxic, single point]",
CCCNC(=O)c1noc2c1CCc1ccccc1-2,"inconclusive: 25.1 µM [cytotoxic, single point]",
CCCOc1ccc(NC(=O)CC2C(=O)N(c3ccccc3)C(=O)N2Cc2ccc(F)cc2)cc1 (stereo not drawn),inactive,
COc1ccc(NC(=O)c2ccc3c(=O)n4nc(Nc5ccccc5C)sc4nc3c2)cc1Cl,"inconclusive: 15.8 µM [cytotoxic, partial curve, poor fit]",
N#Cc1nc(-c2ccc(COc3ccccc3)o2)oc1NCc1cccnc1,"inconclusive: 10 µM [cytotoxic, partial curve]",
Cc1cccc(-c2nc3c(cnn3-c3ccccc3)c(=O)n2-c2ccc(Cl)cc2)c1,inactive,
Cc1ccc2nc(-c3ccccn3)c(Nc3ccccc3C)n2c1,"inconclusive: 5.62 µM [cytotoxic, full curve]",
Cc1ccccc1OCC(=O)Nc1ccccc1OCc1cc(=O)n2ccccc2n1,"inconclusive: 0.005 µM [cytotoxic, full curve, poor fit]",
Cc1ccc(S(=O)(=O)NCCc2nnc3ccc(SCC(=O)Nc4ccc(F)cc4F)nn23)cc1,"inconclusive: 5.01 µM [cytotoxic, partial curve]",
FC(F)(F)c1cccc(Nc2c3c(nc4ccc(Cl)cc24)CCC3)c1,"inconclusive: 12.6 µM [cytotoxic, single point]",
CCCCCN1C(C(=O)c2ccccc2)=C(OC(=O)CC)c2ccccc2S1(=O)=O,"inconclusive: 3.98 µM [cytotoxic, full curve]",
CC(C)c1ccc(Nc2c(-c3ccccn3)nc3ccccn23)cc1,"inconclusive: 1.78 µM [cytotoxic, full curve]",
COc1ccc(CCNC(=O)C(=O)NCC(c2cccs2)S(=O)(=O)c2ccc(F)cc2)cc1 (stereo not drawn),inactive,
CCc1ccc(C(=O)CC2(O)C(=O)N(CCc3ccccc3)c3ccc(Cl)cc32)cc1 (stereo not drawn),"inconclusive: 15.8 µM [cytotoxic, single point]",
CC(=O)N1CCCc2ccc(NC(=O)c3ccc(OC(C)C)cc3)cc21,"inconclusive: 2 µM [cytotoxic, full curve]",
Cc1ccc(C(=O)CSc2nc(C)cc(C)c2C(=O)Nc2cccc(C)c2)cc1,"inconclusive: 20 µM [cytotoxic, single point]",
COc1ccccc1NC(=O)N1CCN(c2ccc3nnc(-c4ccc(F)cc4)n3n2)CC1,inactive,
CCc1ccc(NC(=O)Cn2nnc(-c3ccccc3N)n2)cc1,inactive,

Structure (SMILES),Potency,"activity, negative = cell killing"
COc1ccc(N2CCN(CCCNC(=O)c3c(C)nn(-c4ccc(F)cc4)c3-n3cccc3)CC2)cc1,inactive,
Cc1c(Cl)cccc1NC(=O)c1cc(-c2ccc3c(c2)OCO3)on1,inactive,
Cc1ccc2ccc3cc(C(=O)N4CCN(c5ccccc5F)CC4)nc3c2[nH]1,inactive,
CCCCNC(=O)CCC(=O)NNc1nc2ccccc2c2nc(C)nn12,inactive,
Cc1nn(C(C)C(=O)NCc2ccc(OC(C)C)cc2)c(=O)c2c1sc1ccccc12 (stereo not drawn),"inconclusive: 15.8 µM [cytotoxic, single point]",
Cc1cccc(CSc2cn(CC(=O)N3CCOCC3)c3ccccc23)c1,"inconclusive: 31.6 µM [cytotoxic, single point]",
CCCNC(=O)c1ccc2c(c1)N=C(CCC)c1ccccc1S2,"inconclusive: 14.1 µM [cytotoxic, partial curve]",
Cc1ccc(Cl)cc1-n1ncc2c(NCCc3ccccc3)ncnc21,"inconclusive: 20 µM [cytotoxic, single point]",
CCCn1c(=N)c(C(=O)NCC2CCCO2)cc2c(=O)n3cc(C)ccc3nc21 (stereo not drawn),inactive,
Cc1cccc(-c2nc(SCc3cc(=O)c4c(C)cc(C)cc4[nH]3)n[nH]2)c1,"inconclusive: 31.6 µM [cytotoxic, single point]",
COc1ccc(N2CCN(C(=O)c3cc4c(=O)oc5ccc(C)cc5c4s3)CC2)cc1,"inconclusive: 0.01 µM [cytotoxic, full curve, poor fit]",
Cc1ccc(N2CCN(S(=O)(=O)c3nnc(NC(=O)c4ccccc4)s3)CC2)cc1,"inconclusive: 3.98 µM [cytotoxic, single point]",
CN(C)c1ccc(CNC(=O)Cc2ccc(NC(=O)N3CCCCc4ccccc43)cc2)cc1,"inconclusive: 1.26 µM [cytotoxic, single point]",
Cc1cccc(Cn2cc(S(=O)(=O)c3ccccc3)c(=O)c3cc(F)c(N4CCOCC4)cc32)c1,"inconclusive: 14.1 µM [cytotoxic, single point]",
Cc1cccc2nc(Cn3c(=O)n(-c4ccc(Cl)cc4)c(=O)c4c5c(sc43)CCC5)cc(=O)n12,"inconclusive: 0.0398 µM [cytotoxic, full curve, poor fit]",
Cc1cc(C)cc(NC(=O)Cc2csc(COc3cccc(C)c3)n2)c1,"inconclusive: 0.631 µM [cytotoxic, full curve, poor fit]",
O=c1c2c3c(sc2n(Cc2ccccc2F)c(=O)n1-c1ccc(Cl)cc1)CCCC3,inactive,
Cc1cc(-c2ccc(S(=O)(=O)Nc3cc(Cl)ccc3C)s2)on1,"inconclusive: 31.6 µM [cytotoxic, partial curve]",
Cc1ccccc1OCCCCn1c(C2CC(=O)N(c3ccccc3Cl)C2)nc2ccccc21 (stereo not drawn),"inconclusive: 12.6 µM [cytotoxic, single point]",
COc1cc(NS(=O)(=O)c2ccc3[nH]c4c(c3c2)CCCC4)cc(OC)c1OC,"inconclusive: 15.8 µM [cytotoxic, partial curve, poor fit]",
O=C(Nc1ccc(F)cc1)c1oc2ccccc2c1NC(=O)C1CCCCC1,inactive,

Structure (SMILES),Potency,"activity, negative = cell killing"
Cc1cc(C)c(NC(=O)CN2C(=O)C3(SCC(=O)N3c3ccc(F)cc3)c3ccccc32)c(C)c1 (stereo not drawn),"inconclusive: 0.0501 µM [cytotoxic, full curve, poor fit]",
Cc1ccc(S(=O)(=O)NCCc2nnc3ccc(SCc4ccccc4F)nn23)cc1,"inconclusive: 31.6 µM [cytotoxic, single point]",
COc1cccc(NC(=O)c2ccc3snnc3c2)c1,"inconclusive: 17.8 µM [cytotoxic, partial curve, poor fit]",
COC(=O)CN1C(=O)C(O)(c2c(C)[nH]c3ccccc23)c2ccccc21 (stereo not drawn),"inconclusive: 0.0251 µM [cytotoxic, full curve]",
COc1ccccc1NC(=O)CSc1nnc2c(n1)[nH]c1ccccc12,inactive,
Cc1ccnc(NC(c2cccc(O)c2)c2ccc3ccc(C)nc3c2O)c1 (stereo not drawn),inactive,
CCOC(=O)c1c(-c2ccccc2)oc2ccc(NS(=O)(=O)c3ccc(C)cc3)cc12,"inconclusive: 7.08 µM [cytotoxic, single point]",
O=C(CSC1=Nc2ccccc2C2=NC(Cc3ccccc3)C(=O)N12)Nc1cccc(Cl)c1 (stereo not drawn),"inconclusive: 10 µM [cytotoxic, partial curve]",
COc1ccc(NC(=O)CSC2=Nc3ccccc3C3=NC(CCC(=O)NC4CCCCC4)C(=O)N23)cc1Cl (stereo not drawn),"inconclusive: 0.126 µM [cytotoxic, full curve, poor fit]",
Cc1ccc(-n2nc(CO)c(C(=O)NCc3cccnc3)n2)cc1C,"inconclusive: 3.16 µM [cytotoxic, partial curve]",
CCOc1ccccc1CNS(=O)(=O)c1ccc(-c2cnc(C3CC3)o2)cc1,"inconclusive: 1.26 µM [cytotoxic, partial curve]",
Fc1ccc(CNc2nc(-c3ccc(Cl)cc3)cc(C(F)(F)F)n2)cc1,"inconclusive: 35.5 µM [cytotoxic, single point]",
Nc1nc2nc(-c3ccccc3)cc(=O)n2[nH]1,"inconclusive: 15.8 µM [cytotoxic, single point]",
CCOC(=O)/C=C(\C)Sc1cc(=O)oc2ccccc12,"inconclusive: 11.2 µM [cytotoxic, single point]",
O=C(Cn1cc(S(=O)(=O)N2CCN(c3ccccc3F)CC2)c2ccccc2c1=O)Nc1cccc(C(F)(F)F)c1,"inconclusive: 7.94 µM [cytotoxic, partial curve]",
Cc1ccccc1CNC(=O)CCCn1c(=O)c2cccn2c2ccccc21,inactive,
COc1cccc(NC(=O)N(Cc2cn(C)c3ccccc23)C2CCCCC2)c1,"inconclusive: 6.31 µM [cytotoxic, partial curve]",
COc1ccc(N2C(=O)CSC23C(=O)N(CC(=O)NCc2ccccc2)c2ccccc23)cc1 (stereo not drawn),"inconclusive: 5.62 µM [cytotoxic, single point]",
CCn1c(=O)c2sccc2n2c(CCCC(=O)N3CCN(c4cc(C)ccc4C)CC3)nnc12,,inconclusive: -30.3% [cytotoxic]
CC1=C(c2ccc(C(C)C)cc2)S(=O)(=O)N=C1N1CCC(C(=O)NCc2ccco2)CC1,"inconclusive: 20 µM [cytotoxic, single point]",
CC(NC(=O)c1c2c(nc3ccccc13)C(=O)N(C1CCCCC1)C2)c1ccccc1 (stereo not drawn),inactive,
